Measured values: PubChem BioAssay AID2147 (National Center for Advancing Translational Sciences (NCATS), 2009)
Screen size: about 230,000 compounds; about 3,600 (1.6%) were called active. The shares of active, inactive and inconclusive entries below differ from those in the screen. Calls follow the shape of the dose curve; as a rule, active = well fitted inhibition curve with a large enough effect (not every such curve was filed as active); inconclusive = small, poorly fitted or top-dose-only effect, or another doubt; inactive = no such curve, though single readings can be large or run the other way. Potencies beside an inconclusive call are fits to weak or partial responses and may not hold up.

What follows are compounds tested against Lysine-specific demethylase 4E (Homo sapiens) (UniProt B2RXH2) (assay: qHTS Assay for Inhibitors of Human Jumonji Domain Containing 2E (JMJD2E)). Conditions: JMJD2E catalytic domain, FDH-coupled NADH fluorescence (FDH is formaldehyde dehydrogenase); series mostly up to 57.1 µM.
Also: nearly all actives have a fitted effect of over 50% in size.
Potency is read from the fitted curve at half-maximal effect; tags tell the direction and shape of the fitted curve.

Sequence of UniProt B2RXH2 (B2RXH2 whole entry, looked up, the tested form may be a part): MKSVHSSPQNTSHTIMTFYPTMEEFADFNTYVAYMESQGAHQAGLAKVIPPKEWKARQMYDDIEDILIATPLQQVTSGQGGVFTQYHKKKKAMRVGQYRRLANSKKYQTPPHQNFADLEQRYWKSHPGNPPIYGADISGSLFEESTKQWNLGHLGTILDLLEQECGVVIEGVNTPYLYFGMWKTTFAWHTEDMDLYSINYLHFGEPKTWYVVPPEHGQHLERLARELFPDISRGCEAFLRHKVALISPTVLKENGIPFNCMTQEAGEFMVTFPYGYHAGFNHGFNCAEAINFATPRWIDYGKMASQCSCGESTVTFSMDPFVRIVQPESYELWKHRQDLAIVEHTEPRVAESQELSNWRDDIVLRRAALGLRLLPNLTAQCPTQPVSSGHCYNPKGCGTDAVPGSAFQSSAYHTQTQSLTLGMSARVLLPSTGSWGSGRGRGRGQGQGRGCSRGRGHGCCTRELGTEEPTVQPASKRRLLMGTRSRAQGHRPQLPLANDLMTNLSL

Structure (SMILES)	Potency
COc1ccc2nc(NC(=O)Cc3cccs3)sc2c1	inactive
CCOC(=O)C1=C(Cc2ccc(C)cc2)C(=O)c2ccccc2C1=O	inactive
NNc1ncnc2sc3c(c12)CCC3	inconclusive: 28.2 µM [inhibitor, single point]
CCc1cc(=O)oc2cc(C)cc(OCC(=O)C(C)(C)C)c12	inconclusive: 31.6 µM [inhibitor, partial curve]
COC(=O)c1cccc(NC(=O)c2nn(C)c(=O)c3ccccc23)c1	inactive
N#Cc1nc(-c2ccco2)oc1NCc1ccc(F)cc1	inconclusive: 28.2 µM [inhibitor, partial curve]
COc1ccc(N(C)S(=O)(=O)c2cccc(C(=O)NC3CCC(C)CC3)c2)cc1 (stereo not drawn)	inactive
COc1ccc(Cn2cccc(NC(=O)Nc3cccc(C#N)c3)c2=O)cc1	inconclusive: 28.2 µM [inhibitor, partial curve]
CSc1nc(N)c2ncn([C@H]3O[C@H](COP(=O)(O)OP(=O)(O)OP(=O)(O)O)[C@@H](O)[C@@H]3O)c2n1	inactive
COc1ccc(-c2nc(-c3ccccc3)no2)c(OC)c1	inconclusive: 39.8 µM [inhibitor, single point]
COC(=O)Cn1c(=O)c(C)nc2ccccc21	inconclusive: 28.2 µM [inhibitor, partial curve]
CCOC(=O)C1CCN(c2nc3ccccc3nc2C(C#N)C(=O)OC(C)C)CC1 (stereo not drawn)	inconclusive: 39.8 µM [inhibitor, single point]
O=C(Nc1ccc2c(c1)OCO2)c1sc2cc(Cl)ccc2c1Cl	inconclusive: 3.55 µM [inhibitor, partial curve]
Cc1nn(Cc2ccccc2)c(C)c1/C=N/NC(=O)c1ccccc1O	inconclusive: 28.2 µM [inhibitor, single point]
O=C(N/N=C/C(Br)=C/c1ccccc1)c1cnccn1	inactive
O=[N+]([O-])/C(=C\Nc1ccccc1)S(=O)(=O)c1ccccc1	inactive
O=C(NCC1COc2ccccc2O1)c1ccccc1 (stereo not drawn)	inactive
Cc1ccc(Cn2ncc3c(N4CCN(c5ccccc5C)CC4)ncnc32)cc1	inconclusive: 35.5 µM [inhibitor, single point]
COc1cccc(C(=O)NNC(=S)NC2CCCCC2)c1	inactive
Cc1onc(C(=O)NN)c1-c1csc(COc2ccccc2)n1	inactive
Cc1ccc(-c2nc3ccccc3o2)cc1NC(=O)c1ccc2c(c1)OCO2	inconclusive: 15.8 µM [inhibitor, partial curve]
Cc1ccc(-c2c(C(=O)O)c(C(=O)O)c3n2CCC3)cc1	inconclusive: 39.8 µM [inhibitor, single point]
Cc1cc(C)c(NC(=O)/C=C\C(=O)O)c([N+](=O)[O-])c1	inactive
CCOC(=O)C1=C(N)OC2=C(C(=O)CC(C)(C)C2)C1c1ccc(CC)s1 (stereo not drawn)	inactive

Structure (SMILES)	Potency
CCn1c(C(C)NC(=O)c2ccc(Cl)cc2)n[nH]c1=S (stereo not drawn)	inactive
COc1ccc(CCNC(=O)CCn2c(=O)[nH]c3cc(OC)c(OC)cc3c2=O)cc1OC	inconclusive: 28.2 µM [inhibitor, single point]
COc1ccc(C(OC(=O)c2ccco2)C(=O)NCc2ccco2)cc1 (stereo not drawn)	inactive
COc1ccc2nc(NCCCNC(=O)c3cc(OC)c(OC)c(OC)c3)c(C#N)cc2c1	inconclusive: 17.8 µM [inhibitor, partial curve]
CCOC(=O)c1oc2cc(O)c(CC)cc2c(=O)c1-c1cscn1	inactive
COc1cc(OC)cc(-c2nnc(SCC(=O)N3CCCCC3)o2)c1	inactive
CCS(=O)(=O)NCCc1cc2cc(C)c(C)cc2[nH]c1=O	inconclusive: 35.5 µM [inhibitor, single point]
NNC(=O)CCc1nc2ccc(O)cc2[nH]1	inactive
COc1ccc2oc(=O)c(C(=O)NCc3ccco3)cc2c1	inconclusive: 31.6 µM [inhibitor, partial curve]
Cc1ccc(NC(=O)c2ccc(OC(=O)c3ccco3)cc2)cc1	inactive
COC(=O)/C(=C\c1ccc2c(c1)c1ccccc1n2C)NC(=O)c1ccccc1	inconclusive: 35.5 µM [inhibitor, single point]
NNc1nnc2c3cc(F)ccc3n(Cc3ccccc3)c2n1	inconclusive: 22.4 µM [inhibitor, single point]
C#CCOCCOCCOCCNc1nc(N2CCN(C(=O)[C@H](CCCCN)n3cc([C@@H](N)C(C)CC)nn3)CC2)nc(N2CCN(C(=O)[C@H](Cc3cc4ccccc4[nH]3)n3cc([C@@H](N)CC(C)C)nn3)CC2)n1 (stereo partly drawn)	inconclusive: 35.5 µM [inhibitor, single point]
CCCN1CCc2c(sc(NC(=S)NC(=O)c3ccccc3)c2C#N)C1	inconclusive: 31.6 µM [inhibitor, partial curve]
CCOC(=O)C1(Cc2cccc(F)c2)CCN(C(=O)Cn2cnnn2)CC1	inactive
CCCCS/C(=C(/C#N)C(N)=O)c1cc2c([nH]1)CCCC2	inactive
CCc1c(C)sc(NC(=O)c2cc(-c3ccc(OC)c(OC)c3)on2)c1C#N	inconclusive: 8.91 µM [inhibitor, single point]
Cc1ccccc1NC(=O)CSc1nc(N)c(C#N)cc1C#N	inconclusive: 35.5 µM [inhibitor, single point]
COc1ccc(CN(CCC(c2ccccc2)c2ccco2)C(=O)c2ccco2)cc1 (stereo not drawn)	inactive
CCOC(=O)c1c[nH]c2c3c(ccc2c1=O)CCCC3	inconclusive: 35.5 µM [inhibitor, single point]
O=[N+]([O-])c1ccc(N/N=C2/CCCCC2c2ccccn2)c([N+](=O)[O-])c1 (stereo not drawn)	inconclusive: 35.5 µM [inhibitor, single point]
Cc1ccccc1OCC(=O)Nc1ccc(S(=O)(=O)Nc2ccccn2)cc1	inconclusive: 28.2 µM [inhibitor, partial curve]
CC(C)c1ccc(C(=O)NC2=NCCS2)cc1	inactive
O=C(CN1CCSc2ccccc21)NCCCc1ccccc1	inconclusive: 39.8 µM [inhibitor, single point]
